Source: the supplement of paper PMC11417369
The list shows a part of the results.

System: PfHDP1 homeodomain (GST-tagged)
Test: gcPBM binding intensity (ln(normalized median fluorescence intensity)); higher = stronger DNA binding
Summary of the method: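 DNA-binding domains from P. falciparum, fused to GST and produced in E. coli, were put on an Agilent 4 × 180k double-stranded probe array for 1 h in 1× PBS holding 1% milk, 0.2 mg/ml BSA, 0.5% salmon testes DNA and 0.03% Triton X-100. Probes were primer-extended, 36 bp long and drawn from intergenic genomic regions, with negative controls included. After Alexa488 anti-GST antibody detection and a 488 nm scan, binding intensity was set as the highest Masliner-normalised natural-log median intensity across replicate spots of either probe orientation.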

| Sequence | gcPBM binding intensity (ln) |
| --- | --- |
| TTATTTTTTATTATGTGTACATAACATCGCGATACA [XGTACX_site4359] | 7.01 |
| ATATATATATATATATGTACACATTAATGTTTTTTT [XGTACX_site167] | 9.36 |
| TCGTATATGGATTTTGCACACAATTATAATTTAAAT [CACACA_site868] | 10.8 |
| TATCCCTTAGAATACACACCCATATGAGCGTGAACT [CACACA_site2951] | 6.58 |
| TATATATTTTAAAATAGTACATATTATATAACCCAT [XGTACX_site2194] | 7.04 |
| AATAAAAATTGGTAGGCACACATGGAACTATTAAAA [CACACA_site1257] | 6.75 |
| TATAAAAGGTAAGAGTGTACAAGTAAAAAATTTTTA [XGTACX_site771] | 6.87 |
| ATGAACTATATTAAATCACACATTATCATTTTATAT [CACACA_site4989] | 6.47 |
| TATTTTTTTTTTTAATGTACAAACAAATTATGTTGG [XGTACX_site2873] | 6.48 |
| ATTTTTTTTATGAGGTGTACTCATATAATAACTACA [XGTACX_site5074] | 6.39 |
| TTTTCTAAAGTAAGTTAAGATATGCAAAAAAAAGAA [GTGCAC_negctrl_site242] | 7.56 |
| TTTTTTTTTTGATGCACACACCTGAACGAGTTAATA [CACACA_site4329] | 9.18 |
| CATACAGATGGACACACACACACACCCACAGACAAA [CACACA_site4431] | 6.72 |
| TCGTGAATGATTTAAGTACACACCGGTATTTATTCA [CACACA_site1564] | 6.12 |
| GCATAAACGGATAATTAATTATATTATATTATATCA [CACACA_negctrl_site1519] | 6.37 |
| TTATCCTTGTAACAATGTACACATTATTTAATACTT [XGTACX_site1830] | 6.74 |
| TATTGTTGTCTTTACACATGCAACAAAAGAAGAAAA [TGCATGCA_site911] | 7.13 |
| ATTTATTTATATATATTATTTGTTTTAATTTACTTA [XGTACX_negctrl_site246] | 6.33 |
| TGTTTTATTTAGAAGGTGCACATTAATATTAAATAA | 9.73 |
| ATATGCATTTTTATACGTACATATTTCTTTTCGTTA [XGTACX_site1497] | 7.04 |
| CATATTTTTATGAGATGTACAATAAGAAATATGTAA [XGTACX_site2389] | 6.72 |
| ACAAAAGGGGAATACACACACATATATAAATAAATA [CACACA_site7111] | 7.01 |

| Sequence | gcPBM binding intensity (ln) |
| --- | --- |
| AACAGGTCATAATTTACACACTATATATCTTATTAT [CACACA_site6461] | 7.24 |
| TTCATAAGAAGGAACTGTACATATTTTTCATTTTTT [XGTACX_site6770] | 6.1 |
| TTATATGTATATATATGTATATATATATATATATAG [TGCATGCA_negctrl_site461] | 6.94 |
| TACAATCTTTCATTATGTACTTAACATTTTTTCTGT [XGTACX_site8752] | 6.68 |
| TGTATACCTTAATATACACACATACAGATATATATA [CACACA_site4860] | 6.46 |
| CGATTTTTTTTTTATTGTACTTGCTCGCATGCAATA [XGTACX_site4727] | 6.5 |
| CACCCATAGAAACACACACACGCATAAAAAAAAAAA [CACACA_site1513] | 6.54 |
| TAAAAACAAAAATGCACACATAATAAGCATATGTAT [CACACA_site3469] | 9.59 |
| TTTTTTTTTTTATATACTGGAAATATATTTAATTTA [GTGCAC_negctrl_site250] | 6.47 |
| TACAAAATAGTTTACACACACATATATATACATATA [CACACA_site2615] | 6.59 |
| TTTATTTTTATGGTCACACATATTTTTAAAACTATA [CACACA_site4372] | 6.48 |
| TATTCTAATATTTATACACACATAACTTTGATAAAT [CACACA_site6418] | 6.53 |
| TATATATAGCATATTTCACACACACCGAATGAATAT [CACACA_site9182] | 6.7 |
| TTTCTTGGGAGACATGCATGTACCAGAACAAAATAA [TGCATGCA_site272] | 6.8 |
| ATTAATTATTGTAATTGTACATTTTATATATATCCA [XGTACX_site2105] | 6.6 |
| TAACTTGAATGGATATGTACATATATATATATATAT [XGTACX_site5990] | 9.31 |
| AATAAACATATATACACACACAAAAAAAAAAACATA [CACACA_site424] | 6.86 |
| TAGATGTATGTACATACACACATATATAAATAAATA [CACACA_site1788] | 6.51 |
| ATTCATCTATTTTGTAGTACTAAATATATATCTACT [XGTACX_site8790] | 6.76 |
| TATATAAATAGACACACACACATATAAATATAAATA [CACACA_site6503] | 6.87 |
| TACCTAGGATTAAAGTGTCCACATAATTTAAATAAT [XGTACX_site6736] | 6.55 |
| TTCTTCTGTTTTATTACACACCATTTTGTGGATACA [CACACA_site5181] | 7.04 |

| Sequence | gcPBM binding intensity (ln) |
| --- | --- |
| TTTTTTATTATATAATTGTATATAAAATTATAATTT [GTGCAC_negctrl_site733] | 6.54 |
| TTTTTTTAATTTGGTTGTACTTAAAAAAAAAACAGA [XGTACX_site5788] | 6.58 |
| GCGAAATATTATTATAGTATACAAATACTTCTATGA [CACACA_negctrl_site197] | 6.21 |
| GGTAAGTACGACTTGACACACATACCCATATATATA [CACACA_site4837] | 6.47 |
| ACAGTATCTGGTAGCTGTACGAGTCGTAGAGTGCAG [XGTACX_site2015] | 6.8 |
| GGTGTTAAAAAATACACACACAAAAAAAAAAAAAAA [CACACA_site138] | 6.13 |
| ATATGCCTAATAAAATGTACGTTTGTTTTATTTATT [XGTACX_site3833] | 6.49 |
| ATTATTTTACTAAAAGATATTCCTTTTTTTTGTACT [CACACA_negctrl_site998] | 6.2 |
| ATATGGCTAAAAGTTGCACACACACTAATAAAAAAA [CACACA_site9082] | 9.15 |
| TATGTATTTATATTAACACACAAAAAAAAAAAAAAA [CACACA_site5070] | 6.12 |
| GAATGTATATTCATGTATTTATTATTATTATTATTA [XGTACX_negctrl_site156] | 6.68 |
| TATAACAAGTTATAAAGTACAAATGTTGAATTTTAT [XGTACX_site4673] | 6.07 |
| TCGGGAGGGGGGAAGCGTACATATATAAAATTATTA [XGTACX_site4683] | 8.42 |
| TAAAAATTAATATAAACACACAAAAATTAATAAATA [CACACA_site381] | 6.42 |
| TATAGATACAGATACACACACACACCGACATATATA [CACACA_site5832] | 6.77 |
| AAAAAACACAGACATACACACAAAAAGGTTATAAAT [CACACA_site4222] | 6.79 |
| AGAAAAAAAAAAAATGCACACATTTTCATTGTCAGT [CACACA_site1935] | 9.32 |
| ATATATATATATATGTGTACATATTTTTTTTTTTTT [XGTACX_site3425] | 9.31 |
| CCTTTTTTATTTACAACACACGTAAAGGTTCAAATA [CACACA_site1741] | 6.8 |
| GTAAATATTAATAAAAGTACATATGTAGCATATGGA [XGTACX_site5219] | 6.93 |
| TATAAAGCAACTGAAACACACAAATTTTTTTTTTTT [CACACA_site3218] | 6.13 |
| ATTATTTATTTATGTGTGCGCATGTGTGTAAATATT | 8.19 |

| Sequence | gcPBM binding intensity (ln) |
| --- | --- |
| ACTATTTTCTTCAAAACATGCACCACATAAACATAA [TGCATGCA_site200] | 9.43 |
| TTAAACATATATTAAGCACACACAAACAAAAAAACA [CACACA_site8816] | 7.1 |
| TAATTAATCGATTTACGCACATGAACAAAAGCACAT [CACACA_negctrl_site1287] | 7.16 |
| TATACCAAATATATGGGTACACAAATATGTTTATTC [XGTACX_site8932] | 6.38 |
| AACATATTTTTTTGTTGTACTTACAATTATAAGCAT [XGTACX_site3056] | 6.35 |
| TATTATAAAATATACACATGCAAAAACAAAATTTAC [TGCATGCA_site1051] | 7.03 |
| TATTTTTAATAAAAACGTACGGAATACAAAAAAAAT [XGTACX_site3477] | 7.12 |
| TAAAATTTATAAACTACACACATATAAATAGTAATA [CACACA_site7708] | 6.42 |
| TATATACATTGGTATACATGCATTCTCTTTCATACA [TGCATGCA_site734] | 6.57 |
| TAAACACCCATATAAACACACATATAAACACCCATA [CACACA_site5382] | 6.92 |
| TTTATTTATTTTTAACGTACGCACACATATAAATAT [XGTACX_site4042] | 7.14 |
| TATATATATATATATACACACACACTAATAAAAAAA [CACACA_site8426] | 9.3 |
| CTTAGATATAAAAATTGTACATACATATTTTTGACA [XGTACX_site2107] | 6.25 |
| ATTTTTTAAATGAGGCGTACACAAAAATATAATTAC [XGTACX_site7087] | 7.14 |
| TTTTTTTCGTAAAAAAAAATAATTATTAAATGAAGG [TGCATGCA_negctrl_site212] | 6.64 |
| ACAGAAAAAAGACACACACACATAATATACATACAT [CACACA_site6991] | 6.85 |
| TCATTCGAATAAATTGCACACATGACATCCGTTGTA [CACACA_site2587] | 9.23 |
| ATATATATATTAATTACACACAAAAAAAAAAAAAAA [CACACA_site1165] | 7.49 |
| AAAAAAAAAAAAAATATACACACTAATATATTTTTT [CACACA_site815] | 6.69 |
| TATTAATAATATAATAGTACTTTCACTGTAAATTTA [XGTACX_site6419] | 6.05 |
| TATATACAGATATATACACACATATTTATATTTTAT [CACACA_site7734] | 6.41 |
| GTATAGAGAAAAAACTGTACTTTATATAAATATTTA [XGTACX_site3972] | 5.95 |
